# Laboratory results: the supplement of paper PMC4604168 (melanoma cell lines)
# The list shows a part of the results. Repeats are few or missing, and single values can be far off.
# Tests used:
# Assay in all cases: cell count relative to DMSO control; melanoma cells; higher = more viable cells
# Conditions in all cases: library dose: low library concentration; 72 h
# [1] = tested on: WM115
# [2] = tested on: WM1716
# [3] = tested on: WM1745
# [4] = tested on: WM3526
# [5] = tested on: WM3619
# [6] = tested on: WM451Lu
# 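Also: cell number obtained by counting DAPI-stained nuclei in high-throughput microscope images with image analysis software, screen run in 1,536-well plates.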
Structure (SMILES),cell count [1],cell count [2],cell count [3],cell count [4],cell count [5],cell count [6]
"COc1ccc(-c2ccc3c(N4CCOCC4)nc(N4C[C@@H](C)O[C@@H](C)C4)nc3n2)cc1CO + Cc1cc(SCc2sc(-c3ccc(C(F)(F)F)c(F)c3)nc2C)ccc1OCC(=O)O [GW0742] (first compound 0.02 µM, partner dose 2 µM)",86.6%,93.1%,94.7%,108%,73%,97.7%
"CC1(C)NC(=O)N(c2ccc([N+](=O)[O-])c(C(F)(F)F)c2)C1=O [nilutamide] + Cc1cc(SCc2sc(-c3ccc(C(F)(F)F)c(F)c3)nc2C)ccc1OCC(=O)O [GW0742] (first compound 1 µM, partner dose 2 µM)",98.6%,104%,90.8%,88.1%,104%,112%
"CCCS(=O)(=O)Nc1ccc(F)c(C(=O)c2c[nH]c3ncc(Cl)cc23)c1F + O=C(Oc1ccc([N+](=O)[O-])cc1)N1CCC(C(O)(c2ccc3c(c2)OCO3)c2ccc3c(c2)OCO3)CC1 [JZL184] (first compound 0.08 µM, partner dose 1 µM)",85.8%,104%,109%,50.5%,98.9%,108%
"Cc1cc(Nc2cc(N3CCN(C)CC3)nc(/C=C/c3ccccc3)n2)n[nH]1 + N.N.[Cl][Pt][Cl] [cisplatin] (first compound 0.04 µM, partner dose 1.6 µM)",108%,97.4%,99.4%,110%,101%,109%
"NC(=O)c1ccc(N(C(N)=O)c2c(F)cccc2F)nc1-c1ccc(F)cc1F + N.N.[Cl][Pt][Cl] [cisplatin] (first compound 0.4 µM, partner dose 1.6 µM)",90.6%,89.8%,88.1%,84.3%,109%,115%
"O=C(Oc1ccc([N+](=O)[O-])cc1)N1CCC(C(O)(c2ccc3c(c2)OCO3)c2ccc3c(c2)OCO3)CC1 + Cn1cc(/C=C2\C(=O)Nc3cccnc32)c2ccccc21 [GW441756] (first compound 1 µM, partner dose 0.4 µM)",95.7%,96.7%,88%,115%,97.9%,122%
"CS(=O)(=O)CCNCc1ccc(-c2ccc3ncnc(Nc4ccc(OCc5cccc(F)c5)c(Cl)c4)c3c2)o1 [lapatinib] + C/C(O)=C(\C#N)C(=O)Nc1cc(Br)ccc1Br [LFM-A13] (first compound 0.8 µM, partner dose 2 µM)",99.1%,104%,102%,80.3%,112%,90.4%
"O=C(Nc1ccccc1)c1cc([N+](=O)[O-])ccc1Cl + O=C(Oc1ccc([N+](=O)[O-])cc1)N1CCC(C(O)(c2ccc3c(c2)OCO3)c2ccc3c(c2)OCO3)CC1 [JZL184] (first compound 2 µM, partner dose 1 µM)",102%,101%,112%,102%,110%,94.4%
"Cc1ccc(NC(=O)c2cccc(N(C)C)c2)cc1NC(=O)c1ccc(O)cc1 + C/C(O)=C(\C#N)C(=O)Nc1cc(Br)ccc1Br [LFM-A13] (first compound 2 µM, partner dose 2 µM)",94.9%,99.5%,82.6%,92.3%,97%,115%
"O=C(O)c1ccc(-c2c[nH]c3ncc(-c4ccccc4)cc23)cc1C1CCCC1 + C/C(O)=C(\C#N)C(=O)Nc1cc(Br)ccc1Br [LFM-A13] (first compound 0.16 µM, partner dose 2 µM)",93.6%,100%,96.6%,113%,97.1%,103%
"COc1cc([C@@H]2c3cc4c(cc3[C@@H](O[C@@H]3O[C@@H]5CO[C@@H](C)O[C@H]5[C@H](O)[C@H]3O)[C@H]3COC(=O)[C@H]23)OCO4)cc(OC)c1O [etoposide] + C/C(O)=C(\C#N)C(=O)Nc1cc(Br)ccc1Br [LFM-A13] (first compound 0.02 µM, partner dose 2 µM)",99.3%,96.2%,105%,96.8%,75.8%,97.1%
"Cc1cc(SCc2sc(-c3ccc(C(F)(F)F)c(F)c3)nc2C)ccc1OCC(=O)O + Cn1cc(/C=C2\C(=O)Nc3cccnc32)c2ccccc21 [GW441756] (first compound 2 µM, partner dose 0.4 µM)",103%,107%,88.7%,90.4%,108%,118%
"CN(c1ncccc1CNc1nc(Nc2ccc3c(c2)CC(=O)N3)ncc1C(F)(F)F)S(C)(=O)=O + C[As](C)SC[C@H](NC(=O)CC[C@H](N)C(=O)O)C(=O)NCC(=O)O [Darinaparsin] (first compound 0.08 µM, partner dose 0.4 µM)",85.6%,88%,86.5%,87.6%,96.8%,89.7%
"O=c1[nH]nc(Sc2ncc([N+](=O)[O-])s2)n1-c1ccc2c(c1)OCCO2 + Cc1cc(SCc2sc(-c3ccc(C(F)(F)F)c(F)c3)nc2C)ccc1OCC(=O)O [GW0742] (first compound 0.2 µM, partner dose 2 µM)",92.4%,128%,109%,113%,143%,113%
"CCN(CC)CCNC(=O)c1c(C)[nH]c(/C=C2\C(=O)Nc3ccc(F)cc32)c1C [sunitinib] + N.N.[Cl][Pt][Cl] [cisplatin] (first compound 0.4 µM, partner dose 1.6 µM)",101%,122%,95.7%,67.1%,116%,99.4%
"CC(=O)c1c(C)c2cnc(Nc3ccc(N4CCNCC4)cn3)nc2n(C2CCCC2)c1=O [palbociclib] + O=C(Oc1ccc([N+](=O)[O-])cc1)N1CCC(C(O)(c2ccc3c(c2)OCO3)c2ccc3c(c2)OCO3)CC1 [JZL184] (first compound 0.04 µM, partner dose 1 µM)",67.2%,51.5%,73.5%,62.2%,80.1%,78%
"Cc1cn(-c2cc(NC(=O)c3ccc(C)c(Nc4nccc(-c5cccnc5)n4)c3)cc(C(F)(F)F)c2)cn1 [nilotinib] + O=C(Oc1ccc([N+](=O)[O-])cc1)N1CCC(C(O)(c2ccc3c(c2)OCO3)c2ccc3c(c2)OCO3)CC1 [JZL184] (first compound 0.2 µM, partner dose 1 µM)",109%,84.9%,95.2%,82.1%,99.3%,122%
"COC(=O)c1sccc1S(=O)(=O)Nc1ccc(Nc2ccccc2)cc1OC + O=C(Oc1ccc([N+](=O)[O-])cc1)N1CCC(C(O)(c2ccc3c(c2)OCO3)c2ccc3c(c2)OCO3)CC1 [JZL184] (first compound 1 µM, partner dose 1 µM)",99%,98.7%,101%,85.5%,104%,90.9%
"NC(=O)Nc1cc(-c2cccc(F)c2)sc1C(=O)N[C@H]1CCCNC1 + C/C(O)=C(\C#N)C(=O)Nc1cc(Br)ccc1Br [LFM-A13] (first compound 0.02 µM, partner dose 2 µM)",88.8%,89.2%,94.8%,74.7%,50%,114%
"C=CCNC1=C2C[C@@H](C)C[C@H](OC)[C@H](O)[C@@H](C)/C=C(\C)[C@H](OC(N)=O)[C@@H](OC)/C=C\C=C(/C)C(=O)NC(=CC1=O)C2=O [Tanespimycin] + O=C(Oc1ccc([N+](=O)[O-])cc1)N1CCC(C(O)(c2ccc3c(c2)OCO3)c2ccc3c(c2)OCO3)CC1 [JZL184] (first compound 0.002 µM, partner dose 1 µM)",91.6%,96.9%,91.3%,87.7%,94.8%,102%
"Cn1c(=O)n(-c2ccc(C(C)(C)C#N)cc2)c2c3cc(-c4cnc5ccccc5c4)ccc3ncc21 + C[As](C)SC[C@H](NC(=O)CC[C@H](N)C(=O)O)C(=O)NCC(=O)O [Darinaparsin] (first compound 0.004 µM, partner dose 0.4 µM)",90.5%,84.5%,106%,84.1%,90.6%,100%
"COc1cc(Nc2ncc(F)c(Nc3ccc4c(n3)NC(=O)C(C)(C)O4)n2)cc(OC)c1OC [Tamatinib] + O=C(Oc1ccc([N+](=O)[O-])cc1)N1CCC(C(O)(c2ccc3c(c2)OCO3)c2ccc3c(c2)OCO3)CC1 [JZL184] (first compound 0.4 µM, partner dose 1 µM)",79.3%,87.5%,71.8%,87.2%,100%,86.2%
"CCN(CC)CCNC(=O)c1c(C)[nH]c(/C=C2\C(=O)Nc3ccc(F)cc32)c1C [sunitinib] + C[As](C)SC[C@H](NC(=O)CC[C@H](N)C(=O)O)C(=O)NCC(=O)O [Darinaparsin] (first compound 0.4 µM, partner dose 0.4 µM)",107%,130%,92.9%,88.7%,102%,93.7%
"Cc1cc(SCc2sc(-c3ccc(C(F)(F)F)c(F)c3)nc2C)ccc1OCC(=O)O + COc1cc(N2CCC(N3CCN(C)CC3)CC2)ccc1Nc1ncc(Cl)c(Nc2ccccc2S(=O)(=O)C(C)C)n1 [NVP-TAE684] (first compound 2 µM, partner dose 0.08 µM)",110%,117%,108%,88.8%,94.6%,114%
